Results as given in PMC4336329 (PLoS ONE, 2015).
Out of some 310,000 compounds screened, about 14,000 (4.5%) showed an effect of 50% or more. Effects have a minus sign here. Some of the results follow.

Biological target: human ether-à-go-go-related gene (hERG) potassium channel (human, UniProt Q12809)
Assay: primary screen, population patch clamp on CHO cells stably expressing hERG
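Note: peak tail current of the secondary pulse compared with the same well before compound.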

Sequence of human ether-à-go-go-related gene (hERG) potassium channel (Q12809 whole entry, looked up): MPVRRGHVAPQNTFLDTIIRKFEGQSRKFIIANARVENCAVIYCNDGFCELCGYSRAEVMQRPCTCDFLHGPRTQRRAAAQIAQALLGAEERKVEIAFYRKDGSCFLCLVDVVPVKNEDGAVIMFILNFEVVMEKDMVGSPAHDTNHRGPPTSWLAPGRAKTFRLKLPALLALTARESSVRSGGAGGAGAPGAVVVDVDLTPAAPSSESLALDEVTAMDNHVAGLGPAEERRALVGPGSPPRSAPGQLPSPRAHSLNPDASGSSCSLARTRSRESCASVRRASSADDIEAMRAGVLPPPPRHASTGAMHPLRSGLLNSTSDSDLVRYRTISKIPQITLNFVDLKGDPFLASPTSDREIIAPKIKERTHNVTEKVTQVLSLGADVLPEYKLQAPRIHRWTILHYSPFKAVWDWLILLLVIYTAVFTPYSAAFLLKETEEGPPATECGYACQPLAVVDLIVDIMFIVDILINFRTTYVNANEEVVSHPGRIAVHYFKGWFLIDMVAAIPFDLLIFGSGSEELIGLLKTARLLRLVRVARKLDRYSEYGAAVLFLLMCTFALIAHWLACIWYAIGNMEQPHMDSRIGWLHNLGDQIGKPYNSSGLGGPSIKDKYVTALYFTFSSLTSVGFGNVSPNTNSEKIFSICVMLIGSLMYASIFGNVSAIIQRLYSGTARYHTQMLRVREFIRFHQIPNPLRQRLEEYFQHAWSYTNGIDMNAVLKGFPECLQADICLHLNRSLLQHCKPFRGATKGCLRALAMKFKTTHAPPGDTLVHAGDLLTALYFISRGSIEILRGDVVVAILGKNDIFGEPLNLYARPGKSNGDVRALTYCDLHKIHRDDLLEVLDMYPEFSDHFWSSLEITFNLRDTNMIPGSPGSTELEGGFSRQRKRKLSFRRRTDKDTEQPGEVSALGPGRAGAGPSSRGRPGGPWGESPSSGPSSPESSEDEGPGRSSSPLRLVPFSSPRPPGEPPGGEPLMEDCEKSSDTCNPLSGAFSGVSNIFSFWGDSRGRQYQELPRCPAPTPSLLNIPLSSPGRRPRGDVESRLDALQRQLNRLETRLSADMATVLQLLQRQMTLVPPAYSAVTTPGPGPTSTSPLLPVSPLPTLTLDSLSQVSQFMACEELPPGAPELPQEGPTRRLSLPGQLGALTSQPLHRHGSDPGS

Compound | hERG current change (%, negative = inhibition) at 10uM
CCOC(=O)C1CCN(C(=O)COC(=O)CN(C)S(=O)(=O)c2ccc(NC(C)=O)cc2)CC1 | 11.7%
COc1ccc(NC(=O)COC(=O)c2ncc(Cl)c(Cl)c2Cl)c(OC)c1 | 11%
CCc1ccc(-c2cc(C)no2)cc1S(=O)(=O)Nc1ccc(Cl)cn1 | 12.2%
CCOC(=O)c1c(NC(=O)COC(=O)c2ccccc2NC)sc(C(=O)N(C)C)c1C | 16.2%
CCc1c(C)nc2cc(-c3ccc(Cl)cc3)[nH]n2c1=O | -2.29%
Cc1ccc2cc(NC(=O)Cc3ccccc3)ccc2n1 | 8.3%
Cc1ccc(C(C)NC(=S)NCc2ccc(F)cc2)c(C)c1 (stereo not shown) | 13.6%
O=C(CC(=O)Nc1cccc(Cl)c1Cl)Nc1cccc(Cl)c1Cl | 19%
CCCc1nnc(SCC(=O)N2CCOCC2)n1CCCOC | 5.79%
O=C(NCc1ccco1)c1ccc2c(c1)C(=O)c1ccccc1-2 | -8.64%
COc1ccc(NC(=O)c2c(C)noc2-c2snnc2C)cc1 | -1.51%
CC(C)N(C(=O)CSc1nnc(NC(=O)c2ccco2)s1)C(C)C | 18.3%
Cn1c2c(c(=O)n(C)c1=O)C(c1cc3c(cc1Br)OCO3)CC(=O)N2 (stereo not shown) | 3.46%
Cc1ccc(OCC(=O)Nc2ccc(N3CCN(C(=O)c4ccc(C)cc4)CC3)cc2)cc1 | 9.99%
C/C(CCc1ccccc1)=N\NC(=O)c1ccccc1 | 5.77%
CSc1ccccc1OCc1cc(C(=O)NC2CCOC2)no1 (stereo not shown) | -1.92%
Cc1ccc(OCCNC(=O)CCNS(=O)(=O)c2ccc(C)cc2)cc1 | -12.6%
Cc1ccnc(NC(=O)CCC2COc3ccccc3O2)c1 (stereo not shown) | 7.3%
CN(C)c1cccc2cccc(N(C)C)c12 | -3.13%
COc1cccc(-c2cc(C(=O)N3CCN(C(=O)c4ccco4)CC3)on2)c1 | -13.9%
Cc1ccc(C)c(N(CC(=O)NCCC2=CCCCC2)S(C)(=O)=O)c1 | -14.8%
CC(=O)C1=C(O)C(=O)N(c2ccc(O)cc2)C1c1ccccc1Cl (stereo not shown) | 16.4%

Compound | hERG current change (%, negative = inhibition) at 10uM
O=C(NC(=S)NNC(=O)c1ccccc1O)c1ccc(F)cc1 | 13.1%
COc1nc(Oc2ccc(=O)n(C)n2)nc(N(C)C)n1 | 0.595%
Cc1ccc(OCC(=O)N/N=C/c2cccnc2)cc1 | -9.84%
CCCc1nc2ccc(NC(=O)c3ccco3)cc2c(=O)n1Cc1ccccc1Cl | 9.61%
CC(=Nc1ccccc1C(F)(F)F)c1ccncc1 | 21.9%
COc1ccc(N2CCN(C(CNC(C)=O)c3ccc4c(c3)OCO4)CC2)cc1 (stereo not shown) | -0.207%
CCN(CC(=O)Nc1ccc2c(c1)OCCO2)C(=O)c1ccc(Cl)cc1Cl | -10.7%
CC1CCCN(C(=O)CSc2nc3ncccc3[nH]2)C1 (stereo not shown) | 3.77%
Cc1nn(C(=O)N(C)C)c(C)c1CN1C(=O)c2ccccc2C1=O | 13.8%
COC(C(=O)Nc1ccnn1C1CCN(Cc2ccc(C)o2)CC1)c1ccccc1 (stereo not shown) | -2.65%
Cc1ccc(-n2c(SCC(=O)N3CC(=O)Nc4ccccc43)nc3ccccc3c2=O)cc1 | -1.05%
CCn1nc(NC(=O)C2CCCO2)c2cc3cc(C)ccc3nc21 (stereo not shown) | -4.48%
CCCCNC(=O)C1C2C=CC3(CN(Cc4ccccc4Cl)C(=O)C13)O2 (stereo not shown) | 9.19%
COc1ccc([N+](=O)[O-])cc1NC(=O)COC(=O)c1ccccc1C(=O)c1ccccc1 | -4.06%
CN(C(=O)c1ccc2c(=O)n3c(nc2c1)CCCCC3)c1cccc(Cl)c1 | -16.4%
CCOC(=O)c1ccccc1NC(=O)c1n[nH]c(=O)c2ccccc12 | -0.609%
CN(CC(=O)Nc1cccc(F)c1)CC(=O)Nc1ccc(Cl)cc1[N+](=O)[O-] | 5.57%
CCOC(=O)c1c(NC(=O)COc2cccc3c2CCN(CC)C3=O)sc2c1CCC2 | 9.27%
CN(CC(=O)Nc1ccc(Cl)cc1)CC(=O)Nc1cc(Cl)ccc1C#N | -38.4%
Cc1c(N=C2SCC(=O)N2c2c(C)n(C)n(-c3ccccc3)c2=O)c(=O)n(-c2ccccc2)n1C | -3.14%
O=C(Nc1ncc2c(n1)CC(c1ccco1)CC2=O)c1ccc(Cl)cc1 (stereo not shown) | -21.2%
